# Laboratory results taken from PubChem BioAssay AID1631 (National Center for Advancing Translational Sciences (NCATS), 2009).
# In all, about 260,000 compounds went through this assay and about 890 (0.34%) were called active. Inconclusive means that the source gave no clear call. Such entries were picked first, then a sample of the others. Calls come from the whole dose curve; as a rule, active = well fitted activation curve with a large enough effect; inconclusive = small, poorly fitted or top-dose-only effect; inactive = no such curve, though single readings can be large or run the other way. No potency is given beside an inconclusive call; the fits are too rough.
# Molecular target: Pyruvate kinase PKM (Homo sapiens) (UniProt P14618)
# Chain of UniProt P14618 (P14618 whole entry, looked up, canonical isoform): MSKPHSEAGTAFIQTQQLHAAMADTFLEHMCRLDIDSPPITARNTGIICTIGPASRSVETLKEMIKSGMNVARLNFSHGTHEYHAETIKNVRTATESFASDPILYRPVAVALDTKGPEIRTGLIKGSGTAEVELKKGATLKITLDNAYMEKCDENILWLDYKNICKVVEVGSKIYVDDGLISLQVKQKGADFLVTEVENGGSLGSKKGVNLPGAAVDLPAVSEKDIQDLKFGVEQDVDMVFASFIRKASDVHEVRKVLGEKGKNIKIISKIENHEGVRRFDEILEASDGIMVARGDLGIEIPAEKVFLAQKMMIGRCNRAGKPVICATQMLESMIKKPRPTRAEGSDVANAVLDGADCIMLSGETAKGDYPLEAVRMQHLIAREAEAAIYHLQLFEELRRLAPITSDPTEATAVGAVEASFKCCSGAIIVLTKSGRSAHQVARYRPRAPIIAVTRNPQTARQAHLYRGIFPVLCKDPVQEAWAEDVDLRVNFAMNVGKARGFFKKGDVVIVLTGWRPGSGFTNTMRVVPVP
# Test: qHTS Assay for Activators of Human Muscle isoform 2 Pyruvate Kinase; note: nearly all actives have a fitted effect of over 55% in size
# Settings: purified PKM2, Kinase-Glo ATP luminescence; Potency: activation; activation: at 57.5 µM (top of the series), 0% is enzyme alone, no compound
# Method in brief: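 Purified hPK-M2 (>95% pure) converted ADP (0.1 mM final) to ATP with 0.5 mM PEP in 50 mM imidazole pH7.2, KCl, MgCl2, Tween 20, BSA; 1 h at room temperature. ATP detected by Kinase-Glo luminescence.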
# % is set by controls: 0 for no effect and ±100 for the full control effect; potency is the fitted concentration of half-maximal effect; tags give direction and shape of the fitted curve.
Compound,activation,Potency
Cc1cc(N2CCCCC2)nc(NCc2ccccc2)n1,inactive: -1.71%,
O=C(CSc1ncn(-c2ccccc2)n1)N1CCc2ccccc21,,"inconclusive [rising, partial curve, poor fit]"
Cc1cc(C(=O)COC(=O)c2ccc3c(c2)NC(=O)CS3)c(C)n1CC1CCCO1 (stereo unspecified),,"inconclusive [rising, partial curve]"
CCCc1nc2oc3cc(OC)ccc3c(=O)c2c(=O)n1Cc1ccco1,,"inconclusive [rising, single point]"
COc1ccc(CN(Cc2cccn2C)S(=O)(=O)c2ccc(C)cc2)cc1,,"inconclusive [rising, single point]"
O=C(CN1CCN(Cc2ccccc2)CC1)N/N=C/c1ccc(Br)s1,inactive: -10.9%,
Cn1c(SCn2nnc3ccccc3c2=O)nc2ccccc2c1=O,,"inconclusive [rising, single point]"
C/C(=N\NC(=O)CSc1nc2ccccc2o1)c1ccc(O)cc1,inactive: 2.36%,
Cc1ccc(CCNC(=O)CCNS(=O)(=O)c2ccc3c(c2)c(=O)n(C)c(=O)n3C)cc1,,"inconclusive [rising, single point]"
Cn1c(CCNC(=O)c2ccco2)nc2cc(NS(=O)(=O)c3ccccc3)ccc21,,active: 3.16 µM
COc1cc(S(=O)(=O)n2cnc(C)c2)ccc1Cl,,"inconclusive [rising, single point]"
CSc1sc2ccccc2[n+]1CCCS(=O)(=O)[O-],inactive: 0.16%,
COC(=O)CSc1nc(N2CCCCC2)c2c(c1C#N)CCCC2,inactive: -5.68%,
COc1ccc2c(C)cc(SCC(=O)N3CCOCC3)nc2c1,inactive: -2.82%,
Cc1ccc(CNC(=O)CCNC(=O)Cn2ccc3ccccc3c2=O)o1,,"inconclusive [rising, single point]"
CC(=O)Nc1sc(N/N=C\c2ccc(O)cc2)nc1-c1cccs1,,active: 22.4 µM
CCC1Cc2c(nc(N)c3c(N)nc(N4CCCCC4)c(C#N)c23)O1 (stereo unspecified),,"inconclusive [rising, partial curve]"
Nc1nnc(CC(=O)N/N=C/c2cccc([N+](=O)[O-])c2)s1,,"inconclusive [rising, partial curve]"
COc1ccccc1NCC(=O)NNC(C)C(=O)Nc1cccc(Cl)c1 (stereo unspecified),,"inconclusive [rising, single point]"
Cc1cccc(-c2n[nH]c(=S)n2-c2ccccc2)c1[N+](=O)[O-],,"inconclusive [rising, partial curve]"
COc1cc(/C=C2\CCCc3c2nc2ccccc2c3C(=O)O)cc(OC)c1O,,"inconclusive [rising, partial curve]"
